# Experimental data reported in US20230330254A1 (Regeneron, published 2023).
# Read-outs that look alike come from different tables or passages of the source.
# T1: full-length human gastric inhibitory polypeptide receptor on HEK293/CRE-Luc/hGIPR cells (human, UniProt P48546 22-466)
# T1 sequence (looked up): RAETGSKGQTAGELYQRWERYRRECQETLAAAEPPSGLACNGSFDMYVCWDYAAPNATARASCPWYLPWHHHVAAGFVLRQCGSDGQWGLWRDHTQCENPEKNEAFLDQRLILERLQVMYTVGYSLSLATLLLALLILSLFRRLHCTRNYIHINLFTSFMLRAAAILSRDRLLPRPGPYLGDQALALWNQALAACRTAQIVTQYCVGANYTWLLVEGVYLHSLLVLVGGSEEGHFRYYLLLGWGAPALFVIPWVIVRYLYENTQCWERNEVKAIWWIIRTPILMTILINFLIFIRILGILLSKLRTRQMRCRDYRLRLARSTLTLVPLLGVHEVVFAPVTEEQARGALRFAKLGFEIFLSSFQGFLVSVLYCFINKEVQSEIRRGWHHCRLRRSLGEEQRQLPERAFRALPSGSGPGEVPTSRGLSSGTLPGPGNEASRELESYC
# T2: full-length human glucagon-like peptide 2 receptor on HEK293/CRE-Luc/hGLP2R cells (human, UniProt O95838 1-553)
# T2 sequence (looked up): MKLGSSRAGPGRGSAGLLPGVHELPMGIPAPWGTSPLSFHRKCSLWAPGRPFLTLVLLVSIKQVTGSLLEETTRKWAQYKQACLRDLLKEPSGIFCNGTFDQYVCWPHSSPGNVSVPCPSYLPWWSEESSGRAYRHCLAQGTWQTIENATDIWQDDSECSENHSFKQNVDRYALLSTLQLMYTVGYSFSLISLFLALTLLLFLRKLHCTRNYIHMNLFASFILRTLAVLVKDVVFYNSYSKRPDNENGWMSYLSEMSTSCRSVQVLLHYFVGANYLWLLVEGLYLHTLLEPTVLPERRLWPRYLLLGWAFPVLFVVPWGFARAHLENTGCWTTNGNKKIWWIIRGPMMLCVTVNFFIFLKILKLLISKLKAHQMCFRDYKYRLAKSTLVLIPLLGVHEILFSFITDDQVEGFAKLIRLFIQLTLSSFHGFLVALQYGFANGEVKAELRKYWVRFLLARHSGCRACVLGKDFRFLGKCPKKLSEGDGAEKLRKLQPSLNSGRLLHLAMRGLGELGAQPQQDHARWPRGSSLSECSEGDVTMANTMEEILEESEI
# B1: REGN5619-M3190 (antibody, human IgG4 S228P, kappa)
# heavy: EVQLVESGGGLVQPGGSLKLSCAASGFTFSGSAMHWVRQASGKGLEWVGRITSKANSYATAYDASVKGRFTISRDDSKNTAYLQMNSLKTEDTAVYYCTRQRFLEFLFLDYWGQGTLVTVSSASTKGPSVFPLAPCSRSTSESTAALGCLVKDYFPEPVTVSWNSGALTSGVHTFPAVLQSSGLYSLSSVVTVPSSSLGTKTYTCNVDHKPSNTKVDKRV[human IgG4 Fc with S228P (EU numbers) left out here]
# light: [about 100 residues left out here][about 120 residues left out here]
# modifications: linker-payload M3190 (LP11) on Gln 3 of the N-terminal Q-tag LLQGSG
# notes: antibody-tethered drug conjugate; also called REGN5619 ATDC; Anti-GLP1R mAB2 LP11
# B2: Anti-GLP1R mAB6 conjugated to LP11 (antibody, human IgG4 S228P, kappa)
# heavy: LLQGSGEVQLVESGGGLVQPGGSLKLSCAASGFTFSGSAMHWVRQASGKGLEWVGRITSKANSYATAYDASVKGRFTISRDDSKNTAYLQMNSLKTEDTAVYYCTRQRFLEFLFLDYWGQGTLVTVSSASTKGPSVFPLAPCSRSTSESTAALGCLVKDYFPEPVTVSWNSGALTSGVHTFPAVLQSSGLYSLSSVVTVPSSSLGTKTYTCNVDHKPSNTKVDKRV[human IgG4 Fc with S228P (EU numbers) left out here]
# light: [about 100 residues left out here][about 120 residues left out here]
# modifications: linker-payload LP11 (M3190) on Gln 3 of the N-terminal Q-tag LLQGSG
# B3: REGN5619 (antibody, human IgG4 S228P, kappa)
# heavy: B1 heavy
# light: [about 100 residues left out here][about 120 residues left out here]
# notes: IgG4; Q-tag on light chain N-terminus; also called mAb 2; REGN5619 unconjugated Ab
# How the values were obtained:
# [1] = biological target: T3, full-length cynomolgus GLP1R on HEK293/CRE-Luc/mfGLP1R cells (cynomolgus, UniProt F8V479 24-463); test: flow cytometry, mfGLP1R cells
# T3 construct: whole, on cells
# [2] = biological target: T4, full-length human GLP1R on HEK293/CRE-Luc/hGLP1R cells (human, UniProt P43220 24-463); test: cell-based or functional assay
# [3] = biological target: T4, full-length human GLP1R on …; test: cell-based or functional assay; remark: listed apart in the source
# [4] = biological target: T5, N-terminal ectodomain of human GLP1R expressed with a myc-myc hexahistidine tag (human, UniProt P43220 24-145, limits assumed); test: SPR, captured via anti-hFc, 25 C
# T5 construct: extracellular domain; also called hGLP1R-MMH; hGLP1R.mmh
# [5] = biological target: T4, full-length human GLP1R on …; test: flow cytometry, hGLP1R cells
# [6] = biological target: T1, full-length human gastric inhibitory …; test: cell-based or functional assay
# [7] = biological target: T3, full-length cynomolgus GLP1R on …; test: cell-based or functional assay
# [8] = biological target: full-length human glucagon receptor on HEK293/CRE-Luc/hGCGR cells (human, UniProt P47871 26-477); test: cell-based or functional assay
# [9] = biological target: T4, full-length human GLP1R on …; test: cell-based or functional assay; remark: listed apart in the source
# [10] = biological target: T2, full-length human glucagon-like peptide …; test: cell-based or functional assay
# Sequence of UniProt P47871 (P47871 26-477): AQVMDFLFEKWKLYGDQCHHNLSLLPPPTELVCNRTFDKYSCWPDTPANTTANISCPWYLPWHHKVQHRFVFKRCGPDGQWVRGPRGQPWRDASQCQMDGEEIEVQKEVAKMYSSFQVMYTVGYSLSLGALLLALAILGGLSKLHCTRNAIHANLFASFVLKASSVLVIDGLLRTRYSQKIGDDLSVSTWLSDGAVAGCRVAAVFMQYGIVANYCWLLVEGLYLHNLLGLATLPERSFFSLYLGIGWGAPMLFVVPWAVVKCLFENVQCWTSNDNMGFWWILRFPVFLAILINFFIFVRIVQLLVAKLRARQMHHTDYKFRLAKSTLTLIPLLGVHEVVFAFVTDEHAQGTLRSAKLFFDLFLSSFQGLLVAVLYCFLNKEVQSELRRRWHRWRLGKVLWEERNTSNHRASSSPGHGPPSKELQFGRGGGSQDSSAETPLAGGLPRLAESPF
binder,measurement,setting,value
B1,EC50,[1],2280 pM
same,Flow S/N,[1],128 fold
same,CRE-luc EC50,[2],27.3 pM
same,CRE-luc Relative Potency (% P8 EC50),[2],59.5%
same,CRE-luc Relative Signal:Noise (% P8),[2],158%
same,CRE-luc S/N,[2],102 fold
same,"CRE-luc EC50 of ATDC, 0 nM unconjugated mAb",[3],30 pM
same,"CRE-luc EC50 of ATDC, +0.01 nM unconjugated anti-GLP1R mAb",[3],24 pM
same,"CRE-luc EC50 of ATDC, +0.1 nM unconjugated anti-GLP1R mAb",[3],27 pM
same,"CRE-luc EC50 of ATDC, +1 nM unconjugated anti-GLP1R mAb",[3],29 pM
same,"CRE-luc EC50 of ATDC, +10 nM unconjugated anti-GLP1R mAb",[3],44 pM
same,"CRE-luc EC50 of ATDC, +100 nM unconjugated anti-GLP1R mAb",[3],120 pM
same,"EC50 fold-change vs ATDC alone, 0 nM unconjugated mAb",[3],1 fold
same,"EC50 fold-change vs ATDC alone, +0.01 nM unconjugated mAb",[3],0.8 fold
same,"EC50 fold-change vs ATDC alone, +0.1 nM unconjugated mAb",[3],0.9 fold
same,"EC50 fold-change vs ATDC alone, +1 nM unconjugated mAb",[3],1 fold
same,"EC50 fold-change vs ATDC alone, +10 nM unconjugated mAb",[3],1.5 fold
same,"EC50 fold-change vs ATDC alone, +100 nM unconjugated mAb",[3],4 fold
same,90 nM hGLP1R.mmh Bound (RU),[4],35.3 RU
same,Kd,[4],175000 pM
same,koff,[4],0.0269 s⁻¹
same,kon,[4],154000 M⁻¹ s⁻¹
same,t1/2,[4],24 s
same,EC50,[5],3180 pM
same,Flow S/N,[5],173 fold
same,CRE-luc EC50,[6],> 200000 pM
same,CRE-luc EC50,[7],37.3 pM
same,CRE-luc EC50,[8],> 200000 pM
same,CRE-luc EC50,[9],41.2 pM
same,CRE-luc EC50,[10],> 200000 pM
B2,CRE-luc EC50,[2],112 pM
same,CRE-luc Relative Potency (% P8 EC50),[2],14.5%
same,CRE-luc Relative Signal:Noise (% P8),[2],97.1%
same,CRE-luc S/N,[2],62.5 fold
B3,EC50,[1],2190 pM
same,Flow S/N,[1],155 fold
same,EC50,[5],5680 pM
same,Flow S/N,[5],240 fold
